According to PubChem BioAssay AID2147 (National Center for Advancing Translational Sciences (NCATS), 2009):
The whole screen tested about 230,000 compounds, of which about 3,600 (1.6%) were called active. The inconclusive results got no clear call from the source; some entries with a clear call stand among them for comparison. Calls follow the shape of the dose curve; as a rule, active = well fitted inhibition curve with a large enough effect (not every such curve was filed as active); inconclusive = small, poorly fitted or top-dose-only effect, or another doubt; inactive = no such curve, though single readings can be large or run the other way. Where the call is inconclusive, the potency comes from a doubtful curve fit.

Molecular target: Lysine-specific demethylase 4E (Homo sapiens) (UniProt B2RXH2)
Chain of UniProt B2RXH2 (B2RXH2 whole entry, looked up, the tested form may be a part): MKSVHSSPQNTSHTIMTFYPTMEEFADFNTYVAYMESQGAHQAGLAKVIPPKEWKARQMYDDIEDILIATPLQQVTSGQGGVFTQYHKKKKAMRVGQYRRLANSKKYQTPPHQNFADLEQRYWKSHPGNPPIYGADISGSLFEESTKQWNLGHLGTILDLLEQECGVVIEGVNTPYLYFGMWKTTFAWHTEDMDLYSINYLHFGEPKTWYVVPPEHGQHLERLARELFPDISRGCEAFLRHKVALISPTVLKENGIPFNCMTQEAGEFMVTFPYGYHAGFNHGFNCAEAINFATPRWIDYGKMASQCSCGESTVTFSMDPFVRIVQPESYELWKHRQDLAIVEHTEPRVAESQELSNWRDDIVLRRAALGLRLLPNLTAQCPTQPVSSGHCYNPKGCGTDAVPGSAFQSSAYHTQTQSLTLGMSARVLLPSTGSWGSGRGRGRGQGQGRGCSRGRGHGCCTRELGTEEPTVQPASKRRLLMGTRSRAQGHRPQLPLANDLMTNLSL
Assay: qHTS Assay for Inhibitors of Human Jumonji Domain Containing 2E (JMJD2E)
Details: JMJD2E catalytic domain, FDH-coupled NADH fluorescence (FDH is formaldehyde dehydrogenase); series mostly up to 57.1 µM
Also: nearly all actives have a fitted effect of over 50% in size.
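For activity change, negative = inhibition in this document: 0% = wells with enzyme and -100% = buffer wells without enzyme.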
Potency is read from the fitted curve at half-maximal effect; tags tell the direction and shape of the fitted curve.

Row | SMILES | Potency | activity change, negative = inhibition
1 | COC(=O)c1cc(=O)n(CCc2ccccc2F)c(=Nc2ccc(F)c(Cl)c2)s1 | inactive | –
2 | C=CCn1c(NCc2cc(C)ccc2O)nc2ccccc21 | inactive | –
3 | Cc1cc(C(=O)COc2ccc3ccc(=O)oc3c2)c(C)n1C | inconclusive: 39.8 µM [inhibitor, single point] | –
4 | Cc1ccc(C2=NNC3(CCOC(C)(C)C3)S2)cc1 (centres undefined) | inconclusive: 12.6 µM [inhibitor, partial curve] | –
5 | O=C(/C=C(\O)c1ccccc1)c1ccccc1O | inconclusive: 31.6 µM [inhibitor, single point] | –
6 | COc1cc(-c2nc3ccccn3c2/N=C/c2ccc(F)cc2)ccc1O | inconclusive: 22.4 µM [inhibitor, partial curve] | –
7 | COc1cc(C(=O)NCc2ccccc2)cc(Br)c1OC | inactive | –
8 | O=C(CSc1nnc(-c2ccccc2O)o1)Oc1ccc(Br)cc1 | inconclusive: 25.1 µM [inhibitor, partial curve] | –
9 | OCCCNc1ncnc2sc(-c3ccccc3)cc12 | inconclusive: 31.6 µM [inhibitor, partial curve] | –
10 | CC1(C)Cc2c(c(=S)nc(-c3ccccc3)n2CCCN2CCOCC2)CO1 | inactive | –
11 | COC(=O)c1ccc(NC(=S)Nc2ccc3ccccc3c2)cc1 | inconclusive: 25.1 µM [inhibitor, partial curve] | –
12 | OCCSc1ncnc2c1oc1ccccc12 | inactive | –
13 | CCOC(=O)C1CCN(C(=O)c2cnn3c(C)cc(C)nc23)CC1 | inconclusive: 31.6 µM [inhibitor, partial curve] | –
14 | COc1cc(C2C3=C(CC(C)(C)CC3=O)Nc3c2c(=O)[nH]c(=O)n3Cc2ccccc2)ccc1O (centres undefined) | inconclusive: 31.6 µM [inhibitor, single point] | –
15 | Cc1ccc(-c2nn(C)c(=O)c3ccccc23)cc1CN1CCOCC1 | inactive | –
16 | N#Cc1c(-c2ccccc2)cc2nc3ccccc3n2c1N | inconclusive: 14.1 µM [inhibitor, partial curve] | –
17 | O=C1CCC/C(=N\NC(=O)c2ccc(CSc3cccc4cccnc34)cc2)C1 | inconclusive: 28.2 µM [inhibitor, partial curve] | –
18 | CCOc1ccc(NC(=O)CSc2nc3cccnc3n2CCOC)cc1 | inactive | –
19 | CC1=CC(=C(C#N)C#N)C=C(C)N1CCN1CCN(C(=O)Nc2cccc(Cl)c2)CC1 | inconclusive: 35.5 µM [inhibitor, single point] | –
20 | CC(C)CNc1c(N)c(=O)oc2ccccc12 | inconclusive: 28.2 µM [inhibitor, single point] | –
21 | Cc1cc(N=NC(=O)c2ccccc2)ccc1O | inconclusive: 25.1 µM [inhibitor, single point] | –
22 | CCCC[C@@H]1C[C@H]1C(NC(=O)c1cccs1)c1ccccc1C(F)(F)F (some centres undefined) | inactive | –
23 | CCN(CC(=O)Nc1ccc(N2CCOCC2)cc1)Cc1nc2ccccc2c(=O)[nH]1 | inactive | –

Row | SMILES | Potency | activity change, negative = inhibition
24 | Cc1c(Cl)cnc(NC(=O)COC(=O)Cc2coc3ccc4ccccc4c23)c1Cl | inconclusive: 39.8 µM [inhibitor, single point] | –
25 | CN(C)S(=O)(=O)c1cccc(NC(=O)COC(=O)/C=C/c2ccc3c(c2)OCO3)c1 | inconclusive: 22.4 µM [inhibitor, partial curve] | –
26 | COC(=O)c1ccc(NC(=O)c2ccccc2NS(=O)(=O)c2ccccc2)cc1 | inconclusive: 25.1 µM [inhibitor, partial curve] | –
27 | Nc1ccc(OCC(O)C[n+]2ccc(CCS(=O)(=O)[O-])cc2)cc1 (centres undefined) | inconclusive: 12.6 µM [inhibitor, partial curve, poor fit] | –
28 | COc1ccccc1N(C(=O)c1snc(C(N)=O)c1N)C(C(=O)NC1CCCC1)c1ccco1 (centres undefined) | inconclusive: 28.2 µM [inhibitor, partial curve] | –
29 | CCOC(=O)C1CCCN(C(=O)CN2C(=O)COc3ccc(C(C)(C)C)cc32)C1 (centres undefined) | inconclusive: 35.5 µM [inhibitor, single point] | –
30 | COc1ccc(C2Nc3ccccc3C(=O)N2NS(C)(=O)=O)cc1OC (centres undefined) | inconclusive: 31.6 µM [inhibitor, partial curve] | –
31 | O=C(O)CC1S/C(=N/N=C/c2ccc(-c3ccc(Cl)cc3[N+](=O)[O-])o2)NC1=O (centres undefined) | inconclusive: 2.24 µM [inhibitor, partial curve] | –
32 | CCOC(=O)c1ccc(NC(=O)Cn2ncc(Cl)c(Cl)c2=O)cc1 | inactive | –
33 | CCNC(=S)NNC(=O)c1cc(-c2ccc(OC)cc2)nc2ccccc12 | inconclusive: 25.1 µM [inhibitor, single point] | –
34 | CCC(=O)Nc1cc(=O)[nH]c2nc(-c3ccc(Cl)cc3)nn12 | inconclusive: 35.5 µM [inhibitor, single point] | –
35 | Cc1ccc(-n2cc(C(=O)c3cc(Cl)ccc3O)cc(C#N)c2=O)cc1 | inconclusive: 8.91 µM [inhibitor, single point] | –
36 | COc1cc(/C=N/NC(=O)CNc2n[nH]c(=O)[nH]c2=O)ccc1OCc1ccccc1 | inconclusive: 20 µM [inhibitor, single point] | –
37 | C/C(=N\NC(=O)c1ccc(C)cc1)C1C(=O)c2ccccc2C1=O | active: 25.1 µM | –
38 | O=C1/C(=C/c2ccccc2)CCCc2ccccc21 | inactive | –
39 | Cc1cc(CNC(=O)CC2C(=O)NCCN2Cc2ccc(-c3ccccc3)cc2)nn1C (centres undefined) | inconclusive: 39.8 µM [inhibitor, single point] | –
40 | O=C(c1ccccc1Cl)N(C(=O)c1ccccc1Cl)c1nccc(-c2cccs2)n1 | inconclusive: 7.08 µM [inhibitor, single point] | –
41 | CCN(CC)S(=O)(=O)c1cc(NC(=O)c2cc(-c3ccccn3)nc3ccccc23)ccc1C | inconclusive: 28.2 µM [inhibitor, single point] | –
42 | COC(=O)c1ccccc1NC(=O)NCc1ccccc1 | inconclusive: 3.55 µM [inhibitor, full curve] | –
43 | COc1cc(/C=C/C(=O)OCC(=O)NCc2ccco2)cc(OC)c1OC | inconclusive: 31.6 µM [inhibitor, partial curve] | –
44 | CCCn1c(C)nc2c(NC(C)CN(C)C)nc(C)nc21 (centres undefined) | inactive | –
45 | CCCCc1nc2c(c3c1C[C@H](C)OC3)CN(S(=O)(=O)c1ccc(Cl)c3nonc13)CC2 | – | inactive: 5.14% [at 11.4 µM]
46 | CC(C)(C)NC(=O)C(c1ccco1)N(Cc1ccc(F)cc1)C(=O)c1snc(C(N)=O)c1N (centres undefined) | inconclusive: 28.2 µM [inhibitor, single point] | –

Row | SMILES | Potency | activity change, negative = inhibition
47 | O=C(COC(=O)c1cc(-c2ccccc2)nc2ccccc12)NCC1CCCO1 (centres undefined) | inconclusive: 31.6 µM [inhibitor, partial curve] | –
48 | COCCCNC(=O)C(=O)C1C(=O)Nc2ccccc21 (centres undefined) | inconclusive: 39.8 µM [inhibitor, single point] | –
49 | CC[C@H](C)[C@@H]1NC(=O)c2cc([N+](=O)[O-])cc(F)c2OCC[C@@H](C(N)=O)NC(=O)[C@H](CCCCN)NC1=O | inactive | –
50 | CCCN(CCC)S(=O)(=O)c1ccc(C(=O)Nc2nnc(CSC)o2)cc1 | inconclusive: 39.8 µM [inhibitor, single point] | –
51 | COc1ccc2[nH]c3c(=O)n(Cc4ccco4)cnc3c2c1 | inconclusive: 11.2 µM [inhibitor, partial curve] | –
52 | Fc1ccc(OCCCCCN2CCCC2)cc1 | inactive | –
53 | COC(=O)c1[nH]c2cccc(OC)c2c1NC(=O)CN(C)CC1OCCO1 | inconclusive: 31.6 µM [inhibitor, partial curve] | –
54 | O=C(Cc1cnn(-c2ccccc2)c1)c1ccc(O)c(O)c1O | active: 12.6 µM | –
55 | Cc1nnc(NC(=O)CC(NC(=O)C(F)(F)F)c2ccccc2)s1 (centres undefined) | inactive | –
56 | CC1CCCN(CCOc2ccc(Br)cc2)C1 (centres undefined) | inconclusive: 35.5 µM [inhibitor, single point] | –
57 | COc1cc(C(=O)OCC(=O)NCc2ccc(F)cc2)cc(NC(=O)c2cccs2)c1OC | inconclusive: 3.98 µM [inhibitor, single point] | –
58 | Cc1nn(-c2ccccc2)c2sc(C(=O)OC3CCOC3=O)cc12 (centres undefined) | inconclusive: 25.1 µM [inhibitor, partial curve] | –
59 | O=c1c(Cc2c(F)cccc2Cl)c(O)ccn1CCCn1ccnc1 | inactive | –
60 | CS(=O)(=O)N(Cc1ccc(Cl)cc1)c1ccc(C(=O)N2CCN(c3ccccc3)CC2)cc1 | inactive | –
61 | CC(C)CC1C(C#N)=C(N)Oc2n[nH]c(-c3cccs3)c21 (centres undefined) | inconclusive: 28.2 µM [inhibitor, single point] | –
62 | COc1cc2c(cc1OC)C(c1ccc3c(c1)OCO3)C1=C(CC(C)(C)CC1=O)N2 (centres undefined) | inconclusive: 20 µM [inhibitor, partial curve] | –
63 | C/C(CCC1CC(C)(C)OC1=O)=N\NC(N)=S (centres undefined) | inactive | –
64 | COc1ccc(C(=O)/C=C/c2cn(CC(O)CN3CCOCC3)c3ccccc23)cc1 (centres undefined) | inconclusive: 20 µM [inhibitor, single point] | –
65 | N#C/C(=C\c1c(N2CCCCC2)nc2ccccn2c1=O)C(=O)NCc1ccco1 | inconclusive: 20 µM [inhibitor, partial curve, poor fit] | –
66 | N#Cc1c(N2CCCCC2)nc(N2CCCCC2)c2c1CCN(Cc1ccccc1)C2 | inconclusive: 20 µM [inhibitor, partial curve] | –
67 | O=C(CSc1nnc(-c2cccnc2)n1-c1ccccc1)Nc1ccccc1 | inactive | –
68 | CC(C)Sc1nc2c(c(=O)[nH]1)C(c1cccs1)C1=C(CC(C)(C)CC1=O)N2 (centres undefined) | inconclusive: 31.6 µM [inhibitor, single point] | –
69 | CCCCCCCCNC(=O)/C(C#N)=C/c1ccc2c(c1)OCCO2 | inactive | –
